# Results: patent publication US9975943B2, “Polypeptides” (AFFIBODY AB, priority 2013, dated 2018)
# Tests used:
# [1] = CD analysis with variable temperature measurement; type: physicochemical; conditions: His6-tagged Z variants 0.5 mg/ml in PBS; CD at 221 nm, 20 to 90° C.
# Protocol: Purified His6-tagged Z variants were diluted to 0.5 mg/ml in PBS. For each diluted Z variant, a CD spectrum at 250-195 nm or 250-190 nm was obtained at 20° C. In addition, a variable temperature measurement (VTM) was performed to determine the melting temperature (Tm). In the VTM, the absorbance was measured at 221 nm while the temperature was raised from 20 to 90° C., with a temperature slope of 5° C./min. A new CD spectrum was obtained at 20° C. after the heating procedure in order to study the refolding ability of the Z variants. The CD measurements were performed on a Jasco J-810 spectropolarimeter (Jasco Scandinavia AB) using a cell with an optical path-length of 1 mm.
# hFcRn = molecular target: T1, hFcRn (Homo sapiens, UniProt P55899); assay: Biacore 3000 affinity, one site binding saturation model; conditions: His6-tagged, 25° C.
# T1 construct: made in house; host or cells: human SKOV-3 cells, lentivirally transduced, secreted; purified on immobilized human IgG
# Protocol: (§1) In a separate experiment, the affinity of the interactions of Z variants to hFcRn (SEQ ID NO:1065) and mFcRn (SEQ ID NO:1070), respectively, was measured at both pH 6.0 and pH 7.4 on a Biacore 3000 instrument (GE Healthcare). hFcRn and mFcRn were produced essentially as described in Example 1 but using mouse 3T3 cells instead of human SKOV-3 cells for production of mFcRn, and immobilized on separate flow cells on a CM5 chip in acetate buffer at pH 4.65. The immobilization level was approximately 1000 RU for both receptors. A reference flow cell was created by activation and deactivation. 0.005% PCT pH 6.0 or 7.4 was used as running buffer and for dilution of the analytes. All analyses were performed at 25° C. […] The affinities were derived using GraphPad Prism 5 software, using a one site binding saturation model.
# mFcRn = molecular target: T2, mFcRn (Mus musculus, UniProt Q61559, INS109QKRG); assay: as above; conditions: His6-tagged, 25° C.
# T2 construct: made in house; host or cells: mouse 3T3 cells
# T2 sequence (Q61559 with tags, fused parts or gaps INS109QKRG): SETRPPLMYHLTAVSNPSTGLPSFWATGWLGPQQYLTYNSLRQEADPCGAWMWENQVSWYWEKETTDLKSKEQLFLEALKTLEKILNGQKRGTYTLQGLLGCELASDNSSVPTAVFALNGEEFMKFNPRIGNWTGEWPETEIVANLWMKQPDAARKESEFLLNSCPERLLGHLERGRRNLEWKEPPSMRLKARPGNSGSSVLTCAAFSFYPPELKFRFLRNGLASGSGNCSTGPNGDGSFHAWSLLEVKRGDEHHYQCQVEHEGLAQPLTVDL
# T2 sequence (P01887 21-119 partner): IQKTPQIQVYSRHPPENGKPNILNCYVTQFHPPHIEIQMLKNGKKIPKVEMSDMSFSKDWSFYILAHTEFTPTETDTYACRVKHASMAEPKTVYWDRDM
# Protocol: as §1
# [2] = molecular target: T3, human FcRn-eGFP transduced HeLa cells (Homo sapiens, UniProt P55899); assay: Blocking of IgG-FcRn immunofluorescence staining, comparison with IVIg and SCIg (Example 10); type: cell-based; conditions: 50 nM Alexa647 human IgG; 0.1-1000 nM blocker; pH 6.0
# T3 construct: expressed in transfected cells; host or cells: HeLa cervix adenocarcinoma cells (lentiviral transduction), formaldehyde-fixed and saponin-permeabilised
# Protocol: Human or murine FcRn-eGFP transduced HeLa cells were prepared as described in Example 4. […] The cells were incubated for 1 h at 37° C. in the dark, washed with 2×100 μl McIlvanes, pH 6.0, plus 2.5% FCS (Ultra low IgG) pH 6.0 and re-suspended in 180 μl of McIlvanes, pH 6.0, plus 1% BSA. Data from 10,000 GFP/FcRn positive cells were obtained using a FACS Calibur (Beckman Coulter) and the data was analyzed using Flowing software 2.5.0 (Turku University).
# [3] = molecular target: T4, mouse FcRn-eGFP transduced HeLa cells (Mus musculus, UniProt Q61559, INS109QKRG); assay: Flow cytometry binding of Alexa647 labeled Z variants to FcRn-eGFP HeLa cells; type: cell-based; conditions: 620 nM Alexa647 labeled His6-tagged Z variant; pH 6.0
# T4 construct: expressed in transfected cells; host or cells: HeLa cervix adenocarcinoma cells (lentiviral transduction), formaldehyde-fixed and saponin-permeabilised
# T4 sequence (Q61559 with tags, fused parts or gaps INS109QKRG): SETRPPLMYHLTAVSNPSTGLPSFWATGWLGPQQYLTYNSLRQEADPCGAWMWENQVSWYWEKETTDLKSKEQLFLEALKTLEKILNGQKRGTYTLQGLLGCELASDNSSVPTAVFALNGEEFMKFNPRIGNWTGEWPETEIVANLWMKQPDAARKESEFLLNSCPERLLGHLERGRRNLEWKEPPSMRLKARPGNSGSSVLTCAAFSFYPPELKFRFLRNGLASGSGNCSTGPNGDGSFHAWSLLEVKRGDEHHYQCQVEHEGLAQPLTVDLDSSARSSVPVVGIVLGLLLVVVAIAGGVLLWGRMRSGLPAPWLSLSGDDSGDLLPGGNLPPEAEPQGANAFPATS
# T4 sequence (P01887 21-119 partner): T2 sequence (P01887 21-119 partner)
# Protocol: (§2) hFcRn-eGFP and mFcRn-eGFP HeLa cells were harvested by trypsination and washed twice in PBS at pH 6.0 before counting. 100,000 cells were pipetted per well of a v-bottomed 96 well plate (Nunc, cat no 277143) and the cells in the plate were subsequently pelleted at 1,700 rpm for 4 min at 4° C. The supernatants were removed and the cells were fixed with 50 μl of 2% formaldehyde (Sigma Aldrich, cat. no. F8775) in PBS at pH 6.0 for 10 min at RT. […] Transduced HeLa cells, incubated with buffer alone, were used as control. The cells were incubated for 1 h at 8° C. on a shaker in the dark, washed with 2×100 μl PBSC and resuspended in 180 μl of PBS pH 6.0 plus 1% BSA (fraction V, Merck, cat. no. 1.12018.0100). 10,000 cells/well were analyzed in a Gallios Flow Cytometer (Beckman Coulter) and the data was analyzed using Kaluza software (Beckman Coulter).
# [4] = molecular target: T3, human FcRn-eGFP transduced HeLa cells; assay: as above; type: cell-based; conditions: 620 nM Alexa647 labeled His6-tagged Z variant; pH 6.0
# Protocol: as §2
# T1 sequence (P55899 24-290): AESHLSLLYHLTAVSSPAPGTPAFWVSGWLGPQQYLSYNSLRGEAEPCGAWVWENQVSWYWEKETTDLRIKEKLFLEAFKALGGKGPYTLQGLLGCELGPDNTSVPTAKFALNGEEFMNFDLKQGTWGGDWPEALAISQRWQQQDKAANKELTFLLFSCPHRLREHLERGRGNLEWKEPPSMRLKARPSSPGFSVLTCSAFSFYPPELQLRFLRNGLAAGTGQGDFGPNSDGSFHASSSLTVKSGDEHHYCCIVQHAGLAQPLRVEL
# T1 sequence (P61769 21-119 partner): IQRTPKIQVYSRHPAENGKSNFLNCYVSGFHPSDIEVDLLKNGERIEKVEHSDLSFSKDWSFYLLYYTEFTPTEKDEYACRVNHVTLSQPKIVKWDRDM
# T3 sequence (P55899 24-365): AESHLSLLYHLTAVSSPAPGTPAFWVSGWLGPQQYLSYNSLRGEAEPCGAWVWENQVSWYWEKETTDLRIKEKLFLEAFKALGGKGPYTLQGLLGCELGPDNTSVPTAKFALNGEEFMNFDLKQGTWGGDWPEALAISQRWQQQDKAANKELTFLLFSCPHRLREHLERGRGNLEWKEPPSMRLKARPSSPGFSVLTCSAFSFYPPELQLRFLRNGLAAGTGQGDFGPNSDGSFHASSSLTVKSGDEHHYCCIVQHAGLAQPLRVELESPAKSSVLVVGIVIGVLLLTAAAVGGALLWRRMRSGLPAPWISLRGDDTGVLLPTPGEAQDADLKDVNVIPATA
# T3 sequence (P61769 21-119 partner): as the sequence (P61769 21-119 partner) above
substance,measurement,setting,value
"Z07918: FcRn binding Z variant, 58 amino acid residues, from phage display selection (VDAKYAKEQDAAAHEIRWLPNLTFDQRVAFIHKLADDPSQSSELLSEAKKLNDSQAPK; Engineered FcRn binding polypeptide)",Tm (° C.),[1],49 °C
same,Kd,"hFcRn; pH 6.0, read-out: KD (M) hFcRn pH 6.0",1.2e-08 M
same,Kd,"hFcRn; pH 7.4, read-out: KD (M) hFcRn pH 7.4",> 5e-07 M
same,Kd,"mFcRn; pH 6.0, read-out: KD (M) mFcRn pH 6.0",9e-08 M
same,Kd,"mFcRn; pH 7.4, read-out: KD (M) mFcRn pH 7.4",> 5e-07 M
same,blocking of hIgG binding to hFcRn,[2],effectively blocked hIgG binding to hFcRn to a similar extent as IVIg or SCIg
same,binding to HeLa cells displaying murine FcRn-eGFP,[3],capable of binding
same,binding to HeLa cells displaying human FcRn-eGFP,[4],capable of binding

# Where two headings read alike, the source gives them in different places.
